# Over roughly 33,000 sequences, “E-score (-0.5 to 0.5)” has its median near -0.011; the highest 2% begin near 0.28. Some of the results follow.
# Target: T1, Gcr1 (UniProt P07261)
# T1 sequence: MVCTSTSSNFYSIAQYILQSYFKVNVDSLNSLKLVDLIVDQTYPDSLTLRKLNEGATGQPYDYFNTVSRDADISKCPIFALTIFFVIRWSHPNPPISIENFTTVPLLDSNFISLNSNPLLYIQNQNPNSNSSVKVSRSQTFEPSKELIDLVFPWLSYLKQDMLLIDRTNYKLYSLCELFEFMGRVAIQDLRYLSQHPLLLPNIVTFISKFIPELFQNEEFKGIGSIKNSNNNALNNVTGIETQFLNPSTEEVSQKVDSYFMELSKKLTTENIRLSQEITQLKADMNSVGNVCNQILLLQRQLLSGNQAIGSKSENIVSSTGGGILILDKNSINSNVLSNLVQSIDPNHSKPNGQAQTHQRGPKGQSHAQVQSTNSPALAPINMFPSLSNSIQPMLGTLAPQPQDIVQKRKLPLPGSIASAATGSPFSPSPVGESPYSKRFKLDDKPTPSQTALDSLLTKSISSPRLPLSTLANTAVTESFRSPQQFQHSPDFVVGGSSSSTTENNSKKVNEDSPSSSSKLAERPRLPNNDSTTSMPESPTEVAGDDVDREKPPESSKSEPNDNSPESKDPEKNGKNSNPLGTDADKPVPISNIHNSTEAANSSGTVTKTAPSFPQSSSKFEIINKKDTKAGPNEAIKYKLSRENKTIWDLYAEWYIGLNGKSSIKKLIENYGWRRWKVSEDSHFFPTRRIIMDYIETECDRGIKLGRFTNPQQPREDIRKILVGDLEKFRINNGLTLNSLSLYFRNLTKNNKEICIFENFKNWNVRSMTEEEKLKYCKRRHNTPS
# Assay: PBM E-score (8-mer binding enrichment) (E-score (-0.5 to 0.5)); higher = stronger / more preferred TF binding; most listed sequences are background and not binding sites
# Conditions: protein concentration: 100 nM; construct: GST-full length
# Procedure, shortened: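 PURExpress in vitro transcription/translation supplied GST-tagged yeast transcription factors, either full-length or DNA-binding domain. Applied at about 100-200 nM to universal all-10-mer Agilent arrays double-stranded by primer extension, the bound protein was detected with fluorescent anti-GST. E-scores, modified Wilcoxon-Mann-Whitney statistics, were given by the Universal PBM Analysis Suite to ungapped eight-base words pooled with their reverse complements after masliner normalisation.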
row,Sequence,PBM E-score
1,AGTAGACA,-0.0628
2,CATTGCCG,-0.2
3,CACACTTC,-0.069
4,AAGACCGG,0.0315
5,AGGGTTAG,-0.261
6,CGGACTCC,0.222
7,GTCGTCCA,0.0299
8,ACATATGA,-0.147
9,AACCTTGC,-0.0446
10,CTTTCAAC,0.0703
11,ACCCTTAC,-0.11
12,CGATAAAA,0.14
13,CCTCAGGC,-0.0279
14,CAACTGCA,0.0151
15,AAATACAC,0.149
16,GCGGAACA,-0.172
17,GGGCGACC,0.0839
18,CGGTGAAC,-0.0619
19,ACGTCACA,-0.214
20,CAGCTAGG,-0.113
21,CACGTCTG,-0.1
22,CGATATAG,-0.0106

row,Sequence,PBM E-score
1,CTTGAGGA,-0.00884
2,ATTATGAC,0.00022
3,CGGGACCC,0.306
4,AGTGCAAA,0.0141
5,ACCCGTCA,-0.186
6,AGCGCCCC,0.153
7,CTTTGTTA,0.107
8,CACGCTCG,-0.199
9,CAAATCGG,0.0561
10,CAACATAA,0.0513
11,GTGAGCAC,-0.125
12,CAGGTGCA,-0.0654
13,CACGATCG,-0.114
14,AATGGGAC,0.0245
15,ATGCATGG,-0.0167
16,TATATATA,0.103
17,AGGGAATA,0.0244
18,CTCGTCTC,-0.00497
19,ACAAGGAC,-0.0635
20,CGTTATTA,0.044
21,CAAGCATC,0.112
22,GTAAGTTA,-0.0605

row,Sequence,PBM E-score
1,ATCTGGTA,0.258
2,ACGTACGC,-0.0608
3,AGACCTCC,-0.282
4,ATGTTCAC,0.0132
5,AGGCGCTG,0.213
6,CCGACATC,0.243
7,GAAGTGGC,0.115
8,CCTACGGA,-0.115
9,GCCGTTTA,-0.0504
10,CGTTTGTA,0.0365
11,CTCTTCAG,-0.0373
12,AGTACTAG,0.121
13,TGGAAAAA,-0.0241
14,CGACCAAG,-0.197
15,AGAACAGA,-0.263
16,CTTTTGAC,-0.0271
17,CATGCTCC,-0.144
18,AGTGCGGG,-0.117
19,GATGTCAA,-0.0463
20,ATTCCAGA,0.286
21,CATGGGGA,0.198
22,GAGAATCA,-0.267

row,Sequence,PBM E-score
1,TATCCGCA,0.0884
2,CCGGATTA,-0.0163
3,AGCGGACC,-0.0147
4,GGTGCTAC,0.263
5,GCACATGC,-0.0474
6,GATTAGAC,-0.00665
7,ATTTGCAC,0.0134
8,CAGCTTAG,-0.144
9,GGCGTCAA,-0.0289
10,ACCCGCAT,0.163
11,ATTTTGTG,0.199
12,GCCCGCCA,-0.162
13,CCACAGCG,-0.0915
14,ACACATCG,-0.0614
15,CATAAACG,0.109
16,ATAACGGC,0.101
17,CTGTCGCA,-0.258
18,ATTGCTTA,-0.105
19,ACCAGAAT,0.279
20,GAGTAAGC,-0.235

# Source: the supplement of paper PMC3334620
